# In all, about 270,000 compounds went through this assay and about 620 (0.23%) were called active. The shares of active, inactive and inconclusive entries below differ from those in the screen. Calls come from the whole dose curve; as a rule, active = well fitted inhibition curve with a large enough effect in the polarisation, with a control signal flat (not every such curve was filed as active); inconclusive = small, poorly fitted or top-dose-only effect, or effect the other way, or a change in a side signal; inactive = no such curve, though single readings can be large or run the other way; the % refers to the polarisation. Potencies of inconclusive entries are doubtful fits and often do not repeat. “Side channel” marks fits to a control or component signal instead of the main read-out.
# Molecular target: Menin (Homo sapiens) (UniProt O00255)
# Chain of UniProt O00255 (O00255 whole entry, looked up): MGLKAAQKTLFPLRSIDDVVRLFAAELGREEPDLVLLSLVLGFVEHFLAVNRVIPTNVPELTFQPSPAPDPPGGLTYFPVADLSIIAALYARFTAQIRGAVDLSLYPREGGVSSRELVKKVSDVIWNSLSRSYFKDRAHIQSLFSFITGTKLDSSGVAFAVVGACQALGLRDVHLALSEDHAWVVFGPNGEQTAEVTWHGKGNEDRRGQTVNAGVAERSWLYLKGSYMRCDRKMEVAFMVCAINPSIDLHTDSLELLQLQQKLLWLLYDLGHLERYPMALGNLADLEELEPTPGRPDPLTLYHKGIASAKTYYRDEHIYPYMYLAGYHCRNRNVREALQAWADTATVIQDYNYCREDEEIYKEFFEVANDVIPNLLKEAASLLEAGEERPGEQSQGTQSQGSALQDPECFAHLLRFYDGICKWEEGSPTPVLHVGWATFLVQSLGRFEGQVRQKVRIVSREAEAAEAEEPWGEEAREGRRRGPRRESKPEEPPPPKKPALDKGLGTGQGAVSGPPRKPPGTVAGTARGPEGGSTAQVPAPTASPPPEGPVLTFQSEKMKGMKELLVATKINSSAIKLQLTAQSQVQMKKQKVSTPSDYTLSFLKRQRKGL
# Assay: qHTS Assay for Inhibitors Targeting the Menin-MLL Interaction in MLL Related Leukemias: Competition With Texas Red Labeled MLL-derived Mutant Peptide; for FP activity change, negative = inhibition: % of control where 0% means no effect
# Settings: fluorescence polarization; FP activity change, negative = inhibition: at 61.6 µM (top of the series)
# Potency is the fitted concentration of half-maximal effect; tags give direction and shape of the fitted curve or compound fluorescence and quenching.
SMILES,Potency,"FP activity change, negative = inhibition"
Cn1c(N)c(C(=O)COC(=O)c2cc(C(F)(F)F)nc3ccccc23)c(=O)n(C)c1=O,"inconclusive: 11.2 µM [quencher, side channel, partial curve]",
COc1ccc(OCCNS(=O)(=O)c2cccc([N+](=O)[O-])c2)cc1,"inconclusive: 14.1 µM [quencher, side channel, partial curve]",
CCN(CC(=O)Nc1ccccc1-c1ccccc1)Cc1nc2ccccc2c(=O)[nH]1,"inconclusive: 12.6 µM [inhibitor, partial curve]",
O=C(Cc1cccc(F)c1)Nc1ccc2c(c1)CCC2,"inconclusive: 39.8 µM [inhibitor, single point]",
Oc1ccc(/C=N/N2CCN(C3c4ccccc4-c4ccccc43)CC2)c(O)c1,"inconclusive: 25.1 µM [quencher, side channel, single point]",
Cc1cc(C(F)F)n2nc(C(=O)Nc3c(F)cc(F)cc3Br)nc2n1,"inconclusive: 39.8 µM [inhibitor, single point]",
CC(=O)Nc1ccn(C2OC(C(COC(C)=O)NC(=O)C(COCc3ccccc3)NC(=O)OC(C)(C)C)C(OC(C)=O)C2OC(C)=O)c(=O)n1 (stereo not drawn),,inactive: -26.3%
Cc1noc(C)c1S(=O)(=O)N1CCC(C(=O)Nc2ccc(Br)cc2)CC1,"inconclusive: 39.8 µM [fluorescent, side channel, single point]",
COc1ccc(CC(=O)Nc2cc(Cl)ccc2O)cc1,"inconclusive: 39.8 µM [quencher, side channel, single point]",
O=C(CC1C(=O)NCCN1Cc1ccc(-c2ccccc2)cc1)NCc1ccccc1 (stereo not drawn),"inconclusive: 10 µM [fluorescent, side channel, partial curve]",
COc1nc(-c2ccccc2)ccc1-c1noc(-c2cccnc2)n1,,inactive: 5.59%
O=C(c1cccc(Cl)c1)N1CCN(Cc2ccccc2F)CC1,"inconclusive: 20 µM [fluorescent, side channel, partial curve]",
CCCN(CCC)S(=O)(=O)c1ccc(C(=O)OCCN2C(=O)c3cccc4c(N5CCOCC5)ccc(c34)C2=O)cc1,,inactive: 2.07%
O=C1CN2Cc3c(ccc(Cl)c3Cl)N=C2N1,"inconclusive: 20 µM [inhibitor, partial curve, poor fit]",
O=C(Nc1sc2c(c1C(=O)O)CCCC2)c1ccc(F)cc1,"inconclusive: 22.4 µM [quencher, side channel, partial curve]",
COc1cc(OC)c(OC)cc1/C=N/Nc1ccc(Cl)nn1,"inconclusive: 28.2 µM [quencher, side channel, single point]",
CC1OC(OCC2OC(Oc3c(-c4ccc(O)c(O)c4)oc4cc(O)cc(O)c4c3=O)C(O)C(O)C2O)C(O)C(O)C1O (stereo not drawn),,inactive: 3.64% [at 24.8 µM]
O=C(N/N=C/c1cc(Br)ccc1O)C(c1ccncc1)N1CCOCC1 (stereo not drawn),,inactive: -3.25%
O=C(Nc1nc2ccccc2n1CCN1CCOCC1)c1ccc(COc2ccccc2Br)o1,"inconclusive: 14.1 µM [quencher, side channel, partial curve]",
CC1=NN(C(N)=S)C(=O)C1N=Nc1c(Cl)cc([N+](=O)[O-])cc1Cl (stereo not drawn),"inconclusive: 12.6 µM [quencher, side channel, partial curve]",

SMILES,Potency,"FP activity change, negative = inhibition"
COc1cc(-c2nnc(SCC3(c4ccccc4)OCCO3)o2)cc(OC)c1OC,"inconclusive: 3.16 µM [inhibitor, partial curve]",
Cc1cc(C)nc(NC(=O)/C=C/c2cccs2)c1,,inactive: 15.2%
COc1cccc(-c2nc(NC(C)C)c3ccccc3n2)c1O,"inconclusive: 14.1 µM [quencher, side channel, partial curve]",
COc1cccc(C(=O)Nc2ccc(-c3nc4ccccc4o3)c(O)c2)c1,"inconclusive: 8.91 µM [quencher, side channel, partial curve]",
O=S(=O)(c1cccc(-c2csc(-c3cccnc3)n2)c1)N1CCCCC1,"inconclusive: 39.8 µM [quencher, side channel, single point]",
NC(=O)c1ccc(-n2nnnc2SCC(=O)Nc2ccc(F)cc2)cc1,"inconclusive: 35.5 µM [fluorescent, side channel, single point]",
CC(/C=N/NC(=O)c1ccc(Br)cc1)=C\c1ccccc1,,inactive: 2.3%
O=C(CCN1C(=O)c2ccccc2C1=O)Oc1ccc2ccccc2c1,"inconclusive: 39.8 µM [fluorescent, side channel, single point]",
O=C(Nc1cccc(C(=O)O)c1)/C(=C/c1ccc2c(c1)OCO2)NC(=O)c1cccc(Br)c1,"inconclusive: 25.1 µM [quencher, side channel, partial curve]",
CCOc1ccc(OCC)c(NC(=O)C(NS(=O)(=O)c2ccc3c(c2)oc(=O)n3C)C(C)C)c1 (stereo not drawn),"inconclusive: 39.8 µM [fluorescent, side channel, single point]",
CCCc1c(C(=O)N/N=C/c2ccccc2C(F)(F)F)nnn1-c1nonc1N,"inconclusive: 15.8 µM [quencher, side channel, partial curve]",
COC(=O)c1ccccc1NC(=O)CN1CCc2ccccc2C1,"inconclusive: 8.91 µM [fluorescent, side channel, partial curve]",
CCN(CC(=O)Nc1ccccc1Br)C1CCCCC1,"inconclusive: 17.8 µM [fluorescent, side channel, partial curve]",
Cc1ccc(C(c2nnnn2CS(=O)(=O)c2ccc(C)cc2)N2CCC(C)CC2)cc1 (stereo not drawn),"inconclusive: 28.2 µM [inhibitor, partial curve]",
C/C=C(\C)C(=O)NCCN1C2=NC[C@H](C(C)C)N2C[C@@H]1Cc1ccc(OC)cc1,"inconclusive: 14.1 µM [inhibitor, partial curve, poor fit]",
CCOc1ccc(/C=N/NC(=O)c2nnn(-c3nonc3N)c2CN(C)C2CCCCC2)cc1,"inconclusive: 39.8 µM [inhibitor, single point]",
CCCn1c(=O)[nH]c(=O)c2c1nc(-c1ccccc1OC(F)F)n2CCOC,,inactive: -1.44%
COc1ccccc1-c1cc(C(=O)Nc2ccc(F)cc2F)no1,active: 11.2 µM,
Cc1cc(C(C#N)c2ccccc2F)n2ncnc2n1 (stereo not drawn),"inconclusive: 31.6 µM [quencher, side channel, single point]",
Cc1ccc(-c2nc(C3CCN(S(=O)(=O)c4ccc(C(F)(F)F)cc4)CC3)no2)cc1,"inconclusive: 1.41 µM [inhibitor, full curve, poor fit]",

SMILES,Potency,"FP activity change, negative = inhibition"
COc1ccc(-n2c(N)c(-c3nc4ccccc4n3C)sc2=S)cc1,"inconclusive: 15.8 µM [quencher, side channel, partial curve]",
O=C(NCc1c(O)ccc2ccccc12)c1ccccc1,"inconclusive: 25.1 µM [quencher, side channel, partial curve]",
CCCc1ccc2oc(C(=O)N3CCC[C@H]3CO)c(C)c2c1,"inconclusive: 12.6 µM [fluorescent, side channel, partial curve]",
O=C(CSC1=Nc2ccccc2C2=NC(c3ccccc3)C(=O)N12)NC1CCCCC1 (stereo not drawn),"inconclusive: 35.5 µM [fluorescent, side channel, single point]",
O=C(NCCCN1CCCC1)c1cccc(N2CCCC2=O)c1,"inconclusive: 39.8 µM [inhibitor, single point]",
O=C(O)COc1ccc2occ(C(=O)c3ccccc3)c2c1,"inconclusive: 20 µM [inhibitor, partial curve]",
Cc1ccc(N(C)S(=O)(=O)c2cccc(C(=O)Nc3nc4ccccc4[nH]3)c2)cc1,"inconclusive: 39.8 µM [inhibitor, single point]",
COc1ccc(-n2nnnc2SCC(=O)N2CCN(C(=O)c3ccco3)CC2)cc1OC,"inconclusive: 14.1 µM [inhibitor, partial curve]",
O=C(c1ccc2ccccc2c1)N1CCN(c2ccccn2)CC1,"inconclusive: 28.2 µM [fluorescent, side channel, partial curve]",
O=C(OCc1nnc(-c2ccc(Cl)cc2)o1)c1ccncc1,"inconclusive: 20 µM [quencher, side channel, single point]",
CCc1ccc2nc3sc(C(=O)O)cc3cc2c1,"inconclusive: 1.58 µM [fluorescent, side channel, partial curve]",
CC(C)(C)n1ncc2c(=O)n(CC(=O)Nc3ccc4c(c3)OCO4)cnc21,"inconclusive: 6.31 µM [inhibitor, single point]",
O=C1NN(C(=O)Nc2ccc(Br)cc2)C(c2ccccc2)C1c1ccccc1 (stereo not drawn),,inactive: -6.11%
O=[N+]([O-])c1ccc(-c2ccc(/C=N/c3c(-c4ccco4)nc4ccccn34)o2)cc1,"inconclusive: 22.4 µM [quencher, side channel, partial curve, poor fit]",
Cc1ccccc1CSCc1ccc(C(=O)NCCCN2CCOCC2)o1,"inconclusive: 0.631 µM [fluorescent, side channel, full curve, poor fit]",
c1ccc(-c2csc(N3CCc4ccccc4C3)n2)cc1,"inconclusive: 31.6 µM [inhibitor, single point]",
Oc1ccc(N=Nc2c(O)ccc3ccccc23)cc1,"inconclusive: 5.01 µM [quencher, side channel, full curve]",
Cc1c(NC(=S)/C=C2\N(C)c3ccccc3C2(C)C)c(=O)n(-c2ccccc2)n1C,"inconclusive: 14.1 µM [fluorescent, side channel, partial curve]",
